Experimental data taken from paper PMC5892938.
The other results are listed elsewhere or left out. The source does not settle which construct or isoform was used.

These sequences were tested against GST-SBP-ILF3 (Homo sapiens) (UniProt Q12906) (assay: targeted RNA Bind-n-Seq). Conditions: RBNS binding buffer: 25 mM Tris pH 7.5, 150 mM KCl, 3 mM MgCl2, 0.1% Tween, 0.5 mg/mL BSA, 1 mM DTT; 27 nM protein, 750 pM RNA pool; temperature not stated; high values mean tight binding; sequences stand for … in GGGUAAAAGCGAGGUGAA…CGGGACAAGUAUUAUGGG.

Sequence | binding signal (log2 fold change)
UUUUUUUUUUGAGAGUGAGACACUCUCCUA [tttttgagapaired] | -0.00729
UUUUUUUUUUGAGAGCGAUACGCUCUCCUG [tttttgagapaired] | 0.258
UUUUUUUUUUGAGAUGGAUCCCAUCUCCGG [tttttgagapaired] | 0.194
UUUUUUUUUUGAGAUGGGAACCAUCUCCUA [tttttgagapaired] | 0.198
UUUUUUUUUUGAGACGGUUGCCGUCUCCUG [tttttgagapaired] | 0.739
GGUUGGUGUGUUGGACCCUAACACAUCAAC [gtspaired] | -0.773
UUUUUUUUUUGAGACCGAGGCGGUUUCCAG [tttttgagapaired] | 0.82
UUUUUUUUUUGAGACCGACACGGUUUCCUG [tttttgagapaired] | 0.793
UUUUUUUUUUGAGACGGCAACUGUCUCCUA [tttttgagapaired] | 0.858
UUUUUUUUUUGAGACGGAAUCCGUUUCCGG [tttttgagapaired] | 0.272
UUUUUUUUUUGAGACGGGCACCGUCUCCAG [tttttgagapaired] | 0.708
GGUGUUGGUGUUGGAUUCUAACACCAGCGC [gtspaired] | -0.7
UUUUUUUUUUGAGACGGAAGCCGUCUCCGG [tttttgagapaired] | 0.422
GUGUGUGGUGUUGGCCCCUAACACCGCGCA [gtspaired] | -0.29
UUUUUUUUUUGAGACUGCUACAGUUUCCUA [tttttgagapaired] | 0.432
UUUUUUUUUUGAGACUGGGACAGUCUCCUG [tttttgagapaired] | 0.304
UUUUUUUUUUGAGAUGGACACUAUCUCCUA [tttttgagapaired] | 0.324
UUCCUUCUUCCUCCACGGGAGGGAGAGGGA [ctspaired] | -0.425
GUGUGUGGUGUUGGCACCUAACACCACAUA [gtspaired] | -0.425
UUUUUUUUUUGAGACGGCAGCCGUCUUCUA [tttttgagapaired] | 0.571
GUGUGGUGUGUUGGCCCCUAACACACUACA [gtspaired] | -0.206
GUGUGUGGUGUUGGAGCCUAACACCACGCG [gtspaired] | -0.564

Sequence | binding signal (log2 fold change)
UUCUCCUCUCCUCCGAGGGAGGGGAGGGGA [ctspaired] | -0.743
UUUUUUUUUUGAGAGGGAAUCCUUCUCCAG [tttttgagapaired] | -0.0906
UUUUUUUUUUGAGAUGGCACCCAUCUCCAG [tttttgagapaired] | 0.52
UUUUUUUUUUGAGACGGCGUCCGUCUCCGG [tttttgagapaired] | 0.868
UUUUUUUUUUGAGACCGGUUCGGUCUCCUG [tttttgagapaired] | 0.554
UUUUUUUUUUGAGACGGCUACCGUCUCCUG [tttttgagapaired] | 0.392
GGUGUGUGUGUUGGUCUCUAACACACGCGC [gtspaired] | -0.244
GGUGUGUGUGUUGGCGCCUAACACAUAUAC [gtspaired] | -0.631
GGUGUUGGUGUUGGUUCCUAACACCAGCGC [gtspaired] | -0.782
UUUUUUUUUUGAGACGGGAACCGUCUCCAG [tttttgagapaired] | -0.00745
UUUUUUUUUUGAGAGCGUAGCGUUCUUCUA [tttttgagapaired] | 0.249
UUUUUUUUUUGAGACUGGGUCAGUUUCCUA [tttttgagapaired] | 0.657
UUUUUUUUUUGAGACUGAAUCAGUUUCCUG [tttttgagapaired] | 0.385
GUUGUGUGUGUUGGCGUCUAACACACGCGA [gtspaired] | -0.571
UUUUUUUUUUGAGAGCGAAACGCUCUCCGG [tttttgagapaired] | 0.0939
GGUGGUUGUGUUGGCUCCUAACACAGCCGC [gtspaired] | -0.829
UUUUUUUUUUGAGAUGGGGUCUAUCUCCGG [tttttgagapaired] | 0.358
GUUGGUGGUGUUGGUCCCUAACACCGCCAG [gtspaired] | -0.8
UUUUUUUUUUGAGAGGGCAACCCUCUUCUA [tttttgagapaired] | 0.302
UUUUUUUUUUGAGACGGAAACCGUUUCCUA [tttttgagapaired] | 0.143
UUUUUUUUUUGAGACGGUUUCCGUCUUCUG [tttttgagapaired] | 0.411
UUUUUUUUUUGAGACGGAAACUGUCUUCUA [tttttgagapaired] | 0.607

Sequence | binding signal (log2 fold change)
GUGUGUGGUGUUGGUAUCUAACACCAUACG [gtspaired] | -0.535
UUUUUUUUUUGAGAUCGAUACGAUCUCCUG [tttttgagapaired] | 0.25
GUUGUGUGUGUUGGAAUCUAACACACGCAG [gtspaired] | -0.666
UUUUUUUUUUGAGACGGGGGCUGUCUCCGG [tttttgagapaired] | 0.812
UUUUUUUUUUGAGAGGGGAACCCUUUCCAG [tttttgagapaired] | 0.186
UUUUUUUUUUGAGAGGGGAACCCUUUCCGG [tttttgagapaired] | 0.314
GGUUGUGGUGUUGGUCCCUAACACCACGAC [gtspaired] | -0.145
UUUUUUUUUUGAGACGGAGUCUGUUUCCAG [tttttgagapaired] | 0.485
UUUUUUUUUUGAGACGGGUACCGUCUUCUA [tttttgagapaired] | 0.419
UUUUUUUUUUGAGAGCGGUACGUUCUCCUA [tttttgagapaired] | 0.251
UUUUUUUUUUGAGACUGGAGCAGUUUUCUA [tttttgagapaired] | 0.373
GGUGGUUGUGUUGGUGUCUAACACAAUCGC [gtspaired] | -0.791
UUUUUUUUUUGAGACGGACACUGUCUUCUA [tttttgagapaired] | 0.468
UUUUUUUUUUGAGAGGGAGGCCCUCUCCGG [tttttgagapaired] | 0.471
UUUUUUUUUUGAGAGUGCGGCAUUCUCCUA [tttttgagapaired] | 0.383
GUGGUGUGUGUUGGAACCUAACACACAUCA [gtspaired] | -0.732
UUUUUUUUUUGAGACGGUCCCCGUCUCCAG [tttttgagapaired] | 0.852
GUGGUGUGUGUUGGAAUCUAACACACGCCG [gtspaired] | -0.385
UUUUUUUUUUGAGACGGGUACCGUCUUCUG [tttttgagapaired] | 0.589
UUUUUUUUUUGAGACGGGGACCGUCUCCGG [tttttgagapaired] | 0.573
GUGUGUUGUGUUGGAACCUAACACAGCACA [gtspaired] | -0.297
